Assay results: the supplement of paper PMC7335073
Whole data set: some 4,100 sequences, median “relative CpG methylation activity (normalised to average over all NNNCGNNN flanks)” near 0.94, cut for the highest 2% near 1.9. Some of the results follow.

target: DNMT3B catalytic domain (mouse) (UniProt O88509); assay: relative CpG methylation activity (normalised to average over all NNNCGNNN flanks) (relative (1 = mean)); higher = more methylation of the central CpG; settings: system: in vitro, murine catalytic domain; CpG state: hemimethylated substrate pool; residues: 558-859
Outline: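 For Illumina sequencing, DNA was processed by proteinase K, BsaI-HFv2 digestion, hairpin ligation, bisulfite conversion and two-step PCR after methylation by murine DNMT3A or DNMT3B catalytic domain. The methylation reaction contained 0.8 mM S-adenosyl-L-methionine in HEPES pH 7.5 buffer and ran at 37 °C for 60 min on pooled dsDNA substrates with a central CpG inside 10 random flanking nucleotides. Relative methylation activity was computed as the average methylation of each flanking context divided by the mean over all contexts. Contexts covered three flanking bases per side, and there were two independent repeats per experiment.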

UniProt O88509, sequence (O88509 558-859): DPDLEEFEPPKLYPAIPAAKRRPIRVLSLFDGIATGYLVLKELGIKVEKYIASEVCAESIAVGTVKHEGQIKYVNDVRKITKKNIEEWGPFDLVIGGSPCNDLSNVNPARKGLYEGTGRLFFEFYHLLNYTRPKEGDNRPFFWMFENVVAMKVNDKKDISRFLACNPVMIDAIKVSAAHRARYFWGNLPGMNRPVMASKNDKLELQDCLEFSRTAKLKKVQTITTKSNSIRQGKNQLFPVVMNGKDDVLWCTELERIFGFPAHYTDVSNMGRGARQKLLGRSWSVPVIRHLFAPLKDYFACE

Sequence	relative CpG methylation activity
ACGCGCCC	0.935
AAGCGGTC	0.856
CGGCGAGT	0.779
TGGCGTAT	0.719
ATACGCGG	1.2
CTTCGCTC	0.965
TCGCGCTG	0.501
TTCCGGCG	2.04
TGACGCCG	0.831
ATGCGAAT	1.12
TCACGCAC	1.09
ACACGAGT	1.58
CTGCGGGT	1.5
TCCCGCTG	0.561
GCCCGCTG	0.457
GATCGATC	1.48
ACCCGCGG	0.568
GTCCGCCG	0.894
GCACGAGC	1.79
GCGCGCTG	0.425
GTTCGTAC	1.18
GCCCGATC	1.58
CGCCGAGC	1.3
ATGCGAAG	0.766
AATCGATG	1.29

Sequence	relative CpG methylation activity
ATCCGAGG	1.21
TTGCGTAC	1.26
GTGCGTGT	0.463
GTGCGTTT	0.63
GTTCGGTC	1.15
ACTCGACG	1
CCTCGGAC	1.14
TGCCGCAT	0.247
TCTCGTGT	0.266
ACACGTTA	0.789
CTGCGACA	1.21
CATCGATG	1.48
TTGCGAGG	1.4
CCACGGGC	1.72
GCTCGGCA	1.47
AATCGTTT	0.303
ACTCGCAG	0.345
AGGCGATG	0.563
CCACGGTT	1.45
CTCCGCTA	1.15
GCCCGGGT	1.24
GCCCGATG	1.41
GTACGAAT	1.48
TGTCGGGT	1.02
ATCCGGAC	1.12

Sequence	relative CpG methylation activity
GATCGAAA	1.32
TTCCGCAC	1.24
GAGCGATG	0.633
AAGCGATA	1.12
GCACGTGG	0.497
CTGCGCCC	1.24
CCACGAAA	1.39
ACGCGTTC	0.658
ATTCGTTT	0.469
ACTCGGCC	1.62
TGGCGAAT	0.687
AAGCGCCA	0.765
TTACGTGG	1.01
CTTCGATT	1.71
ACGCGCGT	0.522
TAGCGCCT	0.72
ATACGCAC	1.36
CCACGACC	1.35
GTGCGAGT	1.29
CGACGTAC	0.815
GGTCGAGC	1.36
GAACGTGC	1.03
AACCGGTA	0.82
CAGCGTCT	0.578
CCCCGATT	1.69

Sequence	relative CpG methylation activity
TTGCGGAC	1.19
GCTCGTTC	0.626
AACCGACT	0.962
CGCCGCGA	0.141
GCTCGCTC	0.825
GGGCGGAA	0.326
CATCGGCC	1.86
TCTCGGAG	0.601
ACGCGTCG	0.617
TCTCGAGG	1.49
TATCGATC	1.78
AAACGACA	1.45
GGGCGTGC	0.439
CGACGCGC	0.833
TGACGTGA	0.339
AACCGGGG	0.797
TGACGGAC	0.994
TGTCGGTA	1.16
GGCCGTCG	0.284
CCTCGATA	1.61
CTTCGAAT	1.49
AACCGTTT	0.234
GCTCGGTA	1.08
TACCGCTT	0.676
GGCCGACG	0.769

Sequence	relative CpG methylation activity
AAGCGCGT	0.426
AATCGGTT	1.25
TAGCGACC	0.779
ATTCGGAT	0.679
CATCGTGA	0.436
CGGCGACC	0.673
TCACGACC	1.17
GGCCGCGT	0.0969
TGGCGCAT	0.311
CGACGGGT	1.28
ACGCGCTC	0.863
AATCGCCC	0.893
ATGCGGCG	1.34
CCCCGATG	1.35
GCACGGCT	1.52
CCGCGACA	0.815
AGACGCTA	0.784
ACCCGCTC	0.838
CACCGCTG	0.459
TGGCGGTT	0.685
CCGCGGTT	0.773
ACACGTTC	1.13
TCACGGCC	1.74
ACTCGCCC	0.893
CGTCGCCA	0.723

Sequence	relative CpG methylation activity
GTGCGCGT	0.649
GGCCGGAC	0.442
GGCCGGGG	0.595
GGTCGGCG	1.72
CCTCGGAT	0.856
CATCGGTG	1.16
GGTCGTAA	0.259
CGTCGACT	1.31
ATCCGATA	1.59
TAACGGCC	1.71
ATGCGCGA	0.692
GTCCGAGA	1.59
CTGCGTGT	0.723
ACGCGCAG	0.356
GTACGTGT	0.932
AAGCGGTG	0.509
GTGCGGGA	1.15
ACGCGCCT	1.13
TATCGTGG	0.171
GCCCGTGA	0.56
GCCCGTGT	0.369
TAACGCCT	1.35
ATTCGCAG	0.453
AGCCGGCA	0.995
ACGCGTGC	0.401

Sequence	relative CpG methylation activity
GCACGTCA	0.98
GAACGTGT	0.529
AACCGCGG	0.183
AAGCGCCT	0.713
TTACGTTG	1.29
TTACGAAC	1.96
CATCGCGC	0.853
TGGCGTAG	0.307
CTGCGTCT	1.11
ATTCGCAC	0.727
GAACGGAA	1.13
CTACGGGA	1.91
AGTCGAAG	1
GGTCGTAT	0.496
GTTCGAAC	1.73
TTCCGTGA	0.444
ATACGACG	1.61
CAACGTAG	0.841
GTCCGAAA	1.26
CGTCGACG	0.922
TATCGCTT	0.715
TACCGCGA	0.342
TTACGCTT	1.88
GTACGAGC	1.83
AGGCGTTG	0.0369

Sequence	relative CpG methylation activity
CCTCGGCC	1.66
GACCGGCG	1.53
TACCGCTA	0.483
ATGCGGAT	0.873
TTGCGAGA	1.44
TTCCGACC	1.75
TTGCGGAG	0.803
GAGCGCTG	0.635
TTGCGCCT	1.12
TTTCGCCG	1.43
GCCCGATA	1.41
AGACGTTA	0.669
CGACGTGG	0.431
CGCCGCTC	0.554
ACCCGCAC	0.757
TACCGACA	1.2
GGACGCCC	0.916
CGCCGCCC	0.44
TCGCGGGT	0.741
ACGCGCTA	0.545
GCTCGTTT	0.503
CCACGGCG	1.86
TGACGGAG	0.84
TTACGAGC	2.09
GCCCGCGG	0.453

Sequence	relative CpG methylation activity
CGGCGGAT	0.283
AGGCGTGT	0.104
ACTCGTCT	0.63
TACCGCCC	0.778
TGACGATC	1.42
TACCGGTC	1.22
GTTCGGAC	1.37
TACCGTAT	0.29
GACCGCTC	0.572
GCGCGATA	1.14
TTCCGTAA	0.531
AACCGCTG	0.32
CTACGAAT	1.56
CCGCGCGT	0.602
CGTCGCCG	0.81
TGCCGGAT	0.435
ACGCGAGT	1.05
GTACGCTG	1.17
CCACGCTT	1.13
